# Measured values: PubChem BioAssay AID1508624 (National Center for Advancing Translational Sciences (NCATS), 2021)
# Hit rate of the full screen: of about 48,000 compounds, about 120 (0.25%) were called active. About 4% were inconclusive and are not listed. Calls follow the shape of the dose curve; as a rule, active = well fitted activation curve with a large enough effect; inconclusive = small, poorly fitted or top-dose-only effect, or another doubt; inactive = no such curve, though single readings can be large or run the other way. Some of the results follow.
# Experiment: Primary qHTS for Identification of Small Molecule Activators of Huntingtin-Antisense Promoter Activity; also: nearly all actives have a fitted effect of over 55% in size
# Details: HEK293 HTT-AS promoter firefly luciferase reporter, 24 h
# How it was run: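 Firefly luciferase readout (Dual-Glo, 10 min RT) after 24 h, 37 °C compound exposure (final up to 57.5 uM) of HEK293 reporter cells cultured 24 h beforehand; PTC124 at 50 uM final as control inhibitor; activity scaled vehicle 0%, zero RLU -100%.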
# [1] = at 57.5 µM (top of the series) unless noted
# [2] = at 57.5 µM (top of the series), percent change from vehicle, -100% = no light
smiles,measurement,setting,value
CC(N[C@H]1C[C@H]1c1ccccc1)c1ccc2c(c1)OCCO2 (stereo partly specified),"activity change, positive = activation",[1],inactive: 1.68%
COC(=O)[C@@H](N)CCCN=C(N)N[N+](=O)[O-],"activity change, positive = activation",[1],inactive: 1.44%
CCCC12CN3CC(C)(CN(C1)C3c1c(C)[nH]c(=O)[nH]c1=O)C2=O (stereo unspecified),"activity change, positive = activation",[1],"inactive: 0.884% [at 57.5 µM, percent change from vehicle, -100% = no light]"
O=C(N/N=C/c1ccc([N+](=O)[O-])o1)c1cc([N+](=O)[O-])cc([N+](=O)[O-])c1O,"activity change, positive = activation",[1],inactive: 3.1%
Cc1ccc(-c2nn3c(=O)cc(CN4CCN(C(=O)COc5ccc(C)c(C)c5)CC4)nc3s2)cc1,"activity change, positive = activation",[1],inactive: -9.59%
COc1ccc(Br)cc1C1SCC(=O)Nc2c1c(C)nn2-c1ccccc1C (stereo unspecified),"activity change, positive = activation",[1],"inactive: -23% [at 57.5 µM, percent change from vehicle, -100% = no light]"
CCCC1=Nc2cc(C(=O)NCCCN(CC)CC)ccc2Sc2ccccc21,"activity change, positive = activation",[1],inactive: -10.5%
C[C@H](CN1CCOCC1)C(C(=O)N1CCCC1)(c1ccccc1)c1ccccc1,"activity change, positive = activation",[1],inactive: -29% [at 116 µM]
CCN(CC)C(=O)c1ccc(NC(=O)c2ccc(-c3nn(C)c(=O)c4ccccc34)cc2)cc1,"activity change, positive = activation",[1],inactive: -10.1%
Cc1ccc(-c2nc(CN3C(=O)CN=C(c4ccccc4)c4ccccc43)c(C)o2)cc1,"activity change, positive = activation",[1],"inactive: -20.7% [at 57.5 µM, percent change from vehicle, -100% = no light]"
CCC1(CC)C(=O)C=CNC1=O,"activity change, positive = activation",[1],inactive: -5.47%
COc1ccc(Cc2nccc3cc(OC)c(OC)cc23)cc1OC,"activity change, positive = activation",at 57.5 µM (top of the series),inactive: -34.2%
same,"activity change, positive = activation",[2],inactive: -16.8%
COc1cccc(NC(=O)c2cccn(Cc3ccccc3C)c2=O)c1,"activity change, positive = activation",[1],inactive: -35.8%
COc1ccccc1C1SCC(=O)Nc2c1c(C)nn2-c1cccc(C)c1 (stereo unspecified),"activity change, positive = activation",[1],"inactive: -16.4% [at 57.5 µM, percent change from vehicle, -100% = no light]"
Cc1ccc(Cn2cccc(C(=O)Nc3ccc4c(c3)OCCO4)c2=O)cc1,"activity change, positive = activation",[1],inactive: 11.2%
O=C1c2ccccc2C(=O)c2ccccc21,"activity change, positive = activation",[1],inactive: -3.31% [at 25.1 µM]
Cc1ccc2c(=O)n(-c3cccc(Cl)c3)c(=O)[nH]c2c1,"activity change, positive = activation",[1],inactive: -6.3%
Cc1ccc2nc(NC(=O)c3cccn(Cc4ccccc4F)c3=O)sc2c1,"activity change, positive = activation",[1],inactive: 3.89%
CC[N+](CC)(CC)CC,"activity change, positive = activation",[1],inactive: -3.3%
CCN(CC)C(=O)c1ccc(NC(=O)COc2ccc(-c3nn(C)c(=O)c4ccccc34)cc2)cc1,"activity change, positive = activation",[1],inactive: -40.7%
CCOCCOC(C)=O,"activity change, positive = activation",[1],"inactive: -9.53% [at 116 µM, percent change from vehicle, -100% = no light]"
COc1cc2[nH]c(=O)n(-c3ccc(C)cc3)c(=O)c2cc1OC,"activity change, positive = activation",[1],inactive: 0.849%
CCC(COC(=O)c1cc(OC)c(OC)c(OC)c1)(c1ccccc1)N(C)C (stereo unspecified),"activity change, positive = activation",[1],inactive: -7.19%
O=C(Nc1ccc(Br)cc1C(=O)c1ccccc1Cl)c1ccc(Br)cc1,"activity change, positive = activation",[1],"inactive: 7.93% [at 11.5 µM, percent change from vehicle, -100% = no light]"
CCN(C(C)=O)c1cccc(-c2ccnc3c(C#N)cnn23)c1,"activity change, positive = activation",[1],inactive: -7.98%
Cc1ccccc1-c1nc(CN2C(=O)CN=C(c3ccccc3)c3ccccc32)c(C)o1,"activity change, positive = activation",[1],inactive: -26.1%
O=[N+]([O-])c1ccc([As](=O)(O)O)cc1,"activity change, positive = activation",[1],inactive: -0.897%
CN(C)NC(=O)CCC(=O)O,"activity change, positive = activation",[1],inactive: -18.2%
CCc1ccc(-n2nc(C)c3c2NC(=O)CSC3c2ccc(C(=O)OC)cc2)cc1 (stereo unspecified),"activity change, positive = activation",[1],inactive: -37.3%
COc1ccccc1-c1nn2c(=O)cc(CN3CCN(C(=O)COc4ccccc4Cl)CC3)nc2s1,"activity change, positive = activation",[1],"inactive: -11.8% [at 57.5 µM, percent change from vehicle, -100% = no light]"
COc1cc(C[C@@H](C)N)c(OC)cc1Br,"activity change, positive = activation",[1],inactive: -13.9% [at 116 µM]
CC(C)Oc1cccc(NC(=O)c2ccccc2C(F)(F)F)c1,"activity change, positive = activation",[1],"inactive: -13.3% [at 116 µM, percent change from vehicle, -100% = no light]"
CCC12CN3CC(CC)(CN(C1)C3c1c(C)[nH]c(=O)[nH]c1=O)C2=O (stereo unspecified),"activity change, positive = activation",[1],inactive: 6.01%
COc1cc(OC)cc(C(=O)Nc2ccc(Cl)cc2C(=O)c2ccccc2Cl)c1,"activity change, positive = activation",[1],inactive: 20.6%
C1CCC(NC2CCCCC2)CC1,"activity change, positive = activation",[1],inactive: -6.97%
CCC1(c2cccc(O)c2)CCCCN(C)C1 (stereo unspecified),"activity change, positive = activation",[1],inactive: -12.3%
C[C@@H]1CC[C@H]2[C@@H](C)C(=O)O[C@@H]3O[C@@]4(C)CC[C@@H]1[C@]32OO4,"activity change, positive = activation",[1],inactive: -20.7%
CCN(CC)C(=O)[C@@H]1C=C2c3cccc4[nH]cc(c34)C[C@H]2N(C)C1,"activity change, positive = activation",[1],inactive: -20.9% [at 222 µM]
O=c1c2ccccc2nc(/C=C/c2cccc3ccccc23)n1-c1ccc(Cl)cc1,"activity change, positive = activation",[1],"inactive: -17.6% [at 57.5 µM, percent change from vehicle, -100% = no light]"
CC(=O)OCC1=C(C(=O)O)N2C(=O)[C@@H](N)[C@@H]2SC1,"activity change, positive = activation",[1],inactive: -4.35%
C#C[C@]1(O)C=C[C@H]2[C@@H]3CCC4=CC(=O)CC[C@@H]4[C@H]3CC[C@@]21CC,"activity change, positive = activation",[1],inactive: -21.6%
Cc1cc(C)cc(NC(=O)CN2C(=O)CN=C(c3ccccc3)c3cc(Cl)ccc32)c1,"activity change, positive = activation",[1],inactive: -29.1%
COc1ccc2c(c1)CN(C)CC2c1ccc(Cl)c(Cl)c1 (stereo unspecified),"activity change, positive = activation",[1],inactive: -15.1%
Sc1ccccc1Cl,"activity change, positive = activation",[1],inactive: -10.3%
O=C(COc1ccc(Br)cc1)Nc1ccc(Cl)cc1C(=O)c1ccccc1,"activity change, positive = activation",[1],"inactive: -6.35% [at 57.5 µM, percent change from vehicle, -100% = no light]"
CC(C)(C)NCC(O)c1ccccc1Cl (stereo unspecified),"activity change, positive = activation",[1],inactive: -8.92%
Oc1ccc([C@H]2CNCc3c2ccc(O)c3O)cc1O,"activity change, positive = activation",[1],inactive: -8.42%
C1=C2CCCN[C@H]2[C@@H]2C[C@H]1[C@@H]1CCCCN1C2,"activity change, positive = activation",[1],inactive: -6.03%
CC(C)C[C@H](CN)CC(=O)O,"activity change, positive = activation",[1],inactive: -2.11%
CN(C)C(=S)SSC(=S)N(C)C,"activity change, positive = activation",[1],inactive: -43.5%
Cc1ccc(OCC(=O)N2CCN(Cc3ccc(F)cc3)CC2)cc1,"activity change, positive = activation",[1],"inactive: -20% [at 57.5 µM, percent change from vehicle, -100% = no light]"
Cc1ccc(C(C)(C)C)c(OCC(=O)Nc2ccc(Cl)cc2C(=O)c2ccccc2)c1,"activity change, positive = activation",[1],inactive: -1.99%
COc1ccc2c(c1)[C@]13CCCCC1C(C2)N(C)CC3 (stereo partly specified),"activity change, positive = activation",[1],inactive: -13.2%
COc1cccc(-n2c(/C=C\c3ccc(Cl)cc3)nc3ccccc3c2=O)c1,"activity change, positive = activation",[1],inactive: -14.1%
c1cnc2c(c1)ncn2C1CCNCC1,"activity change, positive = activation",[1],inactive: 2.03%
O=[N+]([O-])/N=C1\NCCN1Cc1ccc(Cl)nc1,"activity change, positive = activation",[1],inactive: -11.2%
CC(=O)OCC1=C(C(=O)O)N2C(=O)[C@@H](N)[C@H]2SC1,"activity change, positive = activation",[1],inactive: -0.567% [at 25.1 µM]
CCOP(=O)(OCC)C(C)NC(=O)N(CCCl)N=O (stereo unspecified),"activity change, positive = activation",[1],inactive: -4.7%
COC(=O)c1cncn1C(C)c1ccccc1 (stereo unspecified),"activity change, positive = activation",[1],inactive: -8.98%
C[C@H]1C(=O)O[C@@H]2CCN3CC=C(COC(=O)[C@](C)(O)[C@]1(C)O)[C@H]23,"activity change, positive = activation",[1],inactive: -13.5%
Cc1cccc(OCC(=O)N2CCN(Cc3cc(=O)n4nc(-c5ccccc5Cl)sc4n3)CC2)c1,"activity change, positive = activation",[1],"inactive: -7.21% [at 57.5 µM, percent change from vehicle, -100% = no light]"
Cc1ccccc1-c1nn2c(=O)cc(CN3CCN(C(=O)COc4ccccc4Cl)CC3)nc2s1,"activity change, positive = activation",[1],"inactive: -28.9% [at 57.5 µM, percent change from vehicle, -100% = no light]"
CN1C(=O)NC(=O)C(C)(C2=CCCCC2)C1=O (stereo unspecified),"activity change, positive = activation",[1],inactive: -5%
CC(CC(C(N)=O)(c1ccccc1)c1ccccc1)N(C)C (stereo unspecified),"activity change, positive = activation",[1],inactive: 2.75%
CN1C(=O)CN=C(c2ccccc2)c2cc([N+](=O)[O-])ccc21,"activity change, positive = activation",[1],inactive: -9.71%
Cc1ccc(-n2c(/C=C\c3ccc(F)c(F)c3)nc3ccccc3c2=O)c(C)c1,"activity change, positive = activation",[1],inactive: -32.3%
Cc1ccc(NC(=O)CN2C(=O)CN=C(c3ccccc3)c3ccccc32)cc1Cl,"activity change, positive = activation",[1],inactive: -36%
O=S(=O)(F)Cc1ccccc1,"activity change, positive = activation",[1],inactive: -0.242%
CCOc1ccccc1NC(=O)c1cccn(Cc2ccccc2C)c1=O,"activity change, positive = activation",[1],inactive: -21.2%
CCSc1nnc(NC(=O)c2cccn(Cc3ccccc3Cl)c2=O)s1,"activity change, positive = activation",[1],inactive: 34.4%
COc1ccc(C(c2c(O)c3ccccc3oc2=O)c2c(C)n(C)n(-c3ccccc3)c2=O)cc1 (stereo unspecified),"activity change, positive = activation",[1],inactive: -17.4%
N#Cc1cc2c(nc1SCC(=O)Nc1cccc(C(F)(F)F)c1)C1CCN2CC1,"activity change, positive = activation",[1],inactive: -47.1%
O=C1CN2CCOC2(c2ccccc2Cl)c2cc(Cl)ccc2N1 (stereo unspecified),"activity change, positive = activation",[1],inactive: -9%
Clc1ccc(CCC(Cn2ccnc2)Sc2c(Cl)cccc2Cl)cc1 (stereo unspecified),"activity change, positive = activation",at 57.5 µM (top of the series),inactive: -28.1%
same,"activity change, positive = activation",[2],inactive: -35%
C[N+](C)(C)CCOC(=O)C(O)(c1ccccc1)c1ccccc1,"activity change, positive = activation",[1],inactive: -16.3%
CC(=O)c1cccc(NC(=O)c2cccn(Cc3cccc(C)c3)c2=O)c1,"activity change, positive = activation",[1],inactive: -16%
CCC(=O)C(CCN(C)C)(c1ccccc1)c1ccccc1,"activity change, positive = activation",[1],inactive: -2.29%
COC(=O)C(Cl)C(=O)OC,"activity change, positive = activation",[1],inactive: -11.4%
COc1ccc(NC(=O)CN2C(=O)C(C)N=C(c3ccccc3)c3ccccc32)cc1OC (stereo unspecified),"activity change, positive = activation",[1],"inactive: -5.39% [at 57.5 µM, percent change from vehicle, -100% = no light]"
